195 variants from a collection of fitness landscapes (doi:10.1126/science.1257360) can be followed below.

The other results are listed elsewhere or left out.

First the molecules themselves.
B1: PhoQ; a variant is named by its letters at X, in order, P23837 (parent)
chain: MKKLLRLFFPLSLRVRFLLATAAVVLVLSLAYGMVALIGYSVSFDKTTFRLLRGESNLFYTLAKWENNKLHVELPENIDKQSPTMTLIYDENGQLLWAQRDVPWLMKMIQPDWLKSNGFHEIEADVNDTSLLLSGDHSIQQQLQEVREDDDDAEMTHSVAVNVYPATSRMPKLTIVVVDTIPVELKSSYMVWSWFIYVLSANLLLVIPLLWVAAWWSLRPIEALAKEVRELEEHNRELLNPATTRELTSLVRNLNRLLKSERERYDKYRTTLTDLTHSLKTPLXXLQXXLRSLRSEKMSVSDAEPVMLEQISRISQQIGYYLHRASMRGGTLLSRELHPVAPLLDNLTSALNKVYQRKGVNISLDISPEISFVGEQNDFVEVMGNVLDNACKYCLEFVEISARQTDEHLYIVVEDDGPGIPLSKREVIFDRGQRVDTLRPGQGVGLAVAREITEQYEGKIVAGESMLGGARMEVIFGRQHSAPKDE

The test covers variants of B1. Briefly: enrichment ratio after two sorts for PhoP signalling (ratio (wild type AVST 3.29)); higher = more functional. The conditions noted are these: with PhoP (E. coli).
Take GFFK: the enrichment ratio is ≤ 0.25.
Under EYSH stands ≤ 0.25; under DWFV, ≤ 0.25.
Under IVDT stands ≤ 0.25.
Under VIYE stands ≤ 0.25; under VDPP, ≤ 0.25.
PTRQ: the enrichment ratio is ≤ 0.25.
For IEYP, the enrichment ratio is ≤ 0.25.
Under QTMW stands ≤ 0.25; under TQEA, ≤ 0.25; under FVFK, ≤ 0.25.
Under KCAC stands ≤ 0.25.
Turning to GATA, the enrichment ratio is ≤ 0.25.
Under MAGM stands ≤ 0.25.
Under FYYP stands ≤ 0.25.
Under QGWM stands 9.7; under ANQI, ≤ 0.25.
Regarding LWFY, the enrichment ratio was ≤ 0.25.
Under TRLT stands 5.42; under KPGF, ≤ 0.25.
In the case of SRWI, the enrichment ratio is ≤ 0.25.
Under SDMC stands 8.47.
Under EHTR stands ≤ 0.25; under YWKC, ≤ 0.25; under PYQT, ≤ 0.25.
Under NKCE stands ≤ 0.25.
Regarding TLDR, the enrichment ratio is ≤ 0.25.
With VTTL, the enrichment ratio was determined as 3.31.
Under MIPE stands ≤ 0.25; under DKQC, ≤ 0.25.
Under KFEN stands ≤ 0.25; under RFMY, ≤ 0.25; under QRNA, ≤ 0.25.
Under AYMR stands ≤ 0.25; under QMWE, ≤ 0.25; under MYNY, ≤ 0.25.
On to GQSV, for which the enrichment ratio stood at 1.06.
Under QCPN stands ≤ 0.25; under NNPM, ≤ 0.25.
Under MMYI stands ≤ 0.25; under PFTG, ≤ 0.25; under TKQY, 6.56.
Under VWSV stands ≤ 0.25.
With FHDM, the enrichment ratio was ≤ 0.25.
For the variant IEPL, the enrichment ratio was ≤ 0.25.
On to SSRG, for which the enrichment ratio is ≤ 0.25.
With PGTM, the enrichment ratio worked out at 1.66.
Regarding WNYI, the enrichment ratio is 0.483.
Under EGSW stands ≤ 0.25.
Under DSQM stands ≤ 0.25; under YMFY, ≤ 0.25.
Consider RNFR, for which the enrichment ratio was ≤ 0.25.
Under YPKI stands ≤ 0.25.
With KMGM, the enrichment ratio is ≤ 0.25.
Under RKMR stands ≤ 0.25; under DNLP, ≤ 0.25.
In the case of ISGN, the enrichment ratio amounted to 1.89.
Under SDCN stands 4.78; under DPDP, ≤ 0.25.
Under LSKN stands ≤ 0.25.
Under LYHS stands ≤ 0.25.
Take LNIC: the enrichment ratio was ≤ 0.25.
Turning to MDFS, the enrichment ratio was ≤ 0.25.
Under ITAH stands ≤ 0.25.
Under RNVI stands ≤ 0.25; under NSRI, ≤ 0.25; under DGRT, ≤ 0.25.
KKCN: the enrichment ratio is ≤ 0.25.
Under ADQS stands ≤ 0.25; under SYNK, ≤ 0.25.
With VSRC, the enrichment ratio is ≤ 0.25.
For the variant PTRT, the enrichment ratio was ≤ 0.25.
Under FMCA stands ≤ 0.25; under EKFH, ≤ 0.25.
As for NDSA, the enrichment ratio is ≤ 0.25.
Under TVWF stands ≤ 0.25.
Under NHQE stands ≤ 0.25.
Regarding NHYA, the enrichment ratio is ≤ 0.25.
Under LDCA stands ≤ 0.25; under KQYN, ≤ 0.25; under HMEP, ≤ 0.25.
For the variant FYVL, the enrichment ratio is ≤ 0.25.
Under NHAT stands ≤ 0.25; under EEFN, ≤ 0.25.
Under RWWH stands ≤ 0.25; under TLYY, ≤ 0.25; under STAW, 13.1.
Consider IINS, for which the enrichment ratio was ≤ 0.25.
Under MMRN stands ≤ 0.25; under GGHM, ≤ 0.25.
Under EDQT stands ≤ 0.25.
Under GAIF stands ≤ 0.25.
Take NDSN: the enrichment ratio was ≤ 0.25.
Under FRNC stands ≤ 0.25.
Under FYHC stands ≤ 0.25; under LFRC, ≤ 0.25.
Under RFEN stands ≤ 0.25; under HFLL, ≤ 0.25.
As to PDWN, the enrichment ratio was ≤ 0.25.
Under MPIY stands ≤ 0.25; under MKVQ, ≤ 0.25; under YMWA, ≤ 0.25.
Under FNTA stands ≤ 0.25; under LWSI, ≤ 0.25; under QSWI, 21.7.
Consider IFEQ, for which the enrichment ratio is ≤ 0.25.
Take LITT: the enrichment ratio was ≤ 0.25.
For EETC, the enrichment ratio was ≤ 0.25.
Under PPQK stands ≤ 0.25.
Under GCDL stands ≤ 0.25.
On to AYRR, for which the enrichment ratio was ≤ 0.25.
Under AYSE stands 0.38; under QRAW, ≤ 0.25; under VHMT, ≤ 0.25.
Under MGGW stands ≤ 0.25; under FLPN, ≤ 0.25.
Under LNPH stands ≤ 0.25; under YHCA, ≤ 0.25.
In the case of MDYQ, the enrichment ratio was ≤ 0.25.
As to PNDD, the enrichment ratio was ≤ 0.25.
On to RWPY, for which the enrichment ratio is ≤ 0.25.
Under LDGA stands ≤ 0.25; under IIYF, ≤ 0.25; under EAMM, ≤ 0.25.
Under SHGN stands ≤ 0.25; under LMPA, ≤ 0.25; under TLRP, ≤ 0.25.
Under FELG stands 5.22; under AGFA, ≤ 0.25.
For TCND, the enrichment ratio worked out at 20.6.
With MRDV, the enrichment ratio is ≤ 0.25.
Under RHGR stands ≤ 0.25; under TFRL, ≤ 0.25.
Take PWCQ: the enrichment ratio is ≤ 0.25.
Under YMCF stands ≤ 0.25; under SGGC, 10.9; under FPKS, ≤ 0.25.
Under EEFY stands ≤ 0.25.
Under FVYQ stands ≤ 0.25; under QNDP, ≤ 0.25.
Regarding DKSC, the enrichment ratio is ≤ 0.25.
Under DPAL stands ≤ 0.25.
Under NPHG stands ≤ 0.25; under WKGY, ≤ 0.25.
Under QNNA stands ≤ 0.25; under WCAR, ≤ 0.25.
Regarding DYIL, the enrichment ratio is ≤ 0.25.
Under GLLC stands ≤ 0.25; under AFTL, 1.06.
Under QFSV stands ≤ 0.25.
Under GDHR stands ≤ 0.25; under IQPK, ≤ 0.25; under FAEW, ≤ 0.25.
Take DAKK: the enrichment ratio was ≤ 0.25.
Under MYDF stands ≤ 0.25; under TMES, ≤ 0.25; under WYGW, ≤ 0.25.
Under YMGV stands ≤ 0.25.
Under IFQM stands ≤ 0.25; under NWIM, ≤ 0.25; under TEMK, 32.5.
Take QPSS: the enrichment ratio is ≤ 0.25.
Under QYCR stands ≤ 0.25; under IHCE, ≤ 0.25; under PDDC, ≤ 0.25.
Under QIME stands ≤ 0.25.
Under VYWW stands ≤ 0.25; under PVWS, ≤ 0.25; under EVNY, ≤ 0.25.
As to GITI, the enrichment ratio is 5.68.
Under VMYS stands ≤ 0.25; under ADQP, ≤ 0.25.
Under VDPK stands ≤ 0.25; under AYCN, ≤ 0.25; under VEYM, ≤ 0.25.
Under RALY stands ≤ 0.25; under QRNN, ≤ 0.25; under PYDK, ≤ 0.25.
Take YYSW: the enrichment ratio was ≤ 0.25.
Under QAIC stands ≤ 0.25; under DGQF, ≤ 0.25; under YNLF, ≤ 0.25.
In the case of AQAL, the enrichment ratio was determined as 18.4.
Under FAYD stands ≤ 0.25; under SVPC, 0.425.
Under SRKG stands ≤ 0.25; under GSSR, ≤ 0.25.
Under RHCN stands ≤ 0.25; under RCMQ, ≤ 0.25; under HPGE, ≤ 0.25.
As to YSMT, the enrichment ratio is ≤ 0.25.
As for HEGM, the enrichment ratio was ≤ 0.25.
Under MNPQ stands ≤ 0.25; under FNMP, ≤ 0.25; under DPQD, ≤ 0.25.
